We go through two molecules from patent US20140271458A1 (AbbVie / Abbott, published 2014).

One assay addresses T1, Recombinant Human IL-17 (human, UniProt Q16552 20-155, limits assumed).
T1 sequence (looked up): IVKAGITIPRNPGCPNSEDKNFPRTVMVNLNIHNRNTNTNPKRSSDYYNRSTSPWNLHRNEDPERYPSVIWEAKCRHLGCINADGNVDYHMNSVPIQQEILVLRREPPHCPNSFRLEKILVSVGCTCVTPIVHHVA
Put plainly: cell-based or functional assay.

The target in another assay is Recombinant Human IL-1b (human, UniProt P01584 117-269). Put plainly: cell-based or functional assay.
Sequence of UniProt P01584 (P01584 117-269 limits assumed): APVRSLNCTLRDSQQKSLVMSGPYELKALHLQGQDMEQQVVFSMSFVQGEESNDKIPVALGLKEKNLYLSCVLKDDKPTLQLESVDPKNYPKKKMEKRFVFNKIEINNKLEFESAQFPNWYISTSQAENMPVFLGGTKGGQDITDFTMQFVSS

B1: DVD2425 (bispecific antibody, human IgG1)
heavy: EVQLVESGGGVVQPGRSLRLSCSASGFIFSRYDMSWVRQAPGKGLEWVAYISHGGAGTYYPDSVKGRFTISRDNSKNTLFLQMDSLRPEDTGVYFCARGGVTKGYFDVWGQGTPVTVSSASTKGPSVFPLAPEVQLVQSGAEVKKPGSSVKVSCKASGGSFGGYGIGWVRQAPGQGLEWMGGITPFFGFADYAQKFQGRVTITADESTTTAYMELSGLTSDDTAVYYCARDPNEFWGGYYSTHDFDSWGQGTTVTVSS[human IgG1 constant region left out]
light: DIQMTQSPSSLSASVGDRVTITCRASGNIHNYLTWYQQTPGKAPKLLIYNAKTLADGVPSRFSGSGSGTDYTFTISSLQPEDIATYYCQHFWSIPYTFGQGTKLQITRTVAAPEIVLTQSPDFQSVTPKEKVTITCRASQDIGSELHWYQQKPDQPPKLLIKYASHSTSGVPSRFSGSGSGTDFTLTINGLEAEDAGTYYCHQTDSLPYTFGPGTKVDIKRTVAAPSVFIFPPSDEQLKSGTASVVCLLNNFYPREAKVQWKVDNALQSGNSQESVTEQDSKDSTYSLSSTLTLSKADYEKHKVYACEVTHQGLSSPVTKSFNRGEC
With B1, the C-Terminal VD IL17 Neutralization Assay (IC50 nM) with Recombinant Human IL-17 worked out at 0.221 nM. In the assay with Recombinant Human IL-1b, the N-Terminal VD IL-1β Neutralization Assay (IC50 nM) came to 0.018 nM.

B2: DVD2426 (bispecific antibody, human IgG1)
heavy: B1 heavy
light: DIQMTQSPSSLSASVGDRVTITCRASGNIHNYLTWYQQTPGKAPKLLIYNAKTLADGVPSRFSGSGSGTDYTFTISSLQPEDIATYYCQHFWSIPYTFGQGTKLQITRTVAAPSVFIFPPEIVLTQSPDFQSVTPKEKVTITCRASQDIGSELHWYQQKPDQPPKLLIKYASHSTSGVPSRFSGSGSGTDFTLTINGLEAEDAGTYYCHQTDSLPYTFGPGTKVDIKRTVAAPSVFIFPPSDEQLKSGTASVVCLLNNFYPREAKVQWKVDNALQSGNSQESVTEQDSKDSTYSLSSTLTLSKADYEKHKVYACEVTHQGLSSPVTKSFNRGEC
For the molecule B2, the C-Terminal VD IL17 Neutralization Assay (IC50 nM) with Recombinant Human IL-17 turned out to be 0.071 nM. Also, in the assay with Recombinant Human IL-1b, the N-Terminal VD IL-1β Neutralization Assay (IC50 nM) was found to be 0.026 nM.
